Assay results published in patent publication US20190367516A1 (Bayer Pharma Aktiengesellschaft, priority 2015, published 2019).

Target: T1, human M2 receptor (Homo sapiens, UniProt P08172)
T1 sequence (P08172 1-466): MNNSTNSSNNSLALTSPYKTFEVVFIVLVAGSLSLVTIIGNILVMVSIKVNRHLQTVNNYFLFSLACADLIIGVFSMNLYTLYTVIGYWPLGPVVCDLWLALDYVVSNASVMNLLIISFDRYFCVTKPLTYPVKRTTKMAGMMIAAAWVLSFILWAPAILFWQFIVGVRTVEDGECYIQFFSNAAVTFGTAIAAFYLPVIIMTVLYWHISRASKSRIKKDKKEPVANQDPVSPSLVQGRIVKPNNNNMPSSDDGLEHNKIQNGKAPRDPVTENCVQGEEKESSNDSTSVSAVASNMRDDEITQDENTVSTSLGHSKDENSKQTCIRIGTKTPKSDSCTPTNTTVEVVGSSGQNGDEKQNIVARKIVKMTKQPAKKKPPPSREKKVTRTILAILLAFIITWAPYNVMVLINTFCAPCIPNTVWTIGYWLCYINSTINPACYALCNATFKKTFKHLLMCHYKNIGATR
Conditions: boosting of the acetylcholine effect at an EC20 acetylcholine concentration; for Emax: read-out: Efficiency, M2-GIRK1/4 activation test; for Efficiency: M2-GIRK1/4 activation test

Row | Structure (SMILES) | Emax | Efficiency
1 | CN(C)c1ccc2c(=O)c(C(=O)NC(C)(C)C)cn(-c3ccc(F)cc3F)c2n1 [Example 43, N-tery-Butyl-1-(2,4-difluorophenyl)-7-(dimethylamino)-4-oxo-1,4-dihydro-1,8-naphthyridine-3-carboxamide] | 96.6% | 
2 | CC(NC(=O)c1cn(-c2ccc(F)cc2F)c2nc(N(C)CCF)ccc2c1=O)C(F)(F)F (racemic) [Example 105, rac-1-(2,4-Difluorophenyl)-7-[(2-fluoroethyl)(methyl)amino]-4-oxo-N-[1,1,1-trifluoropropan-2-yl]-1,4-dihydro-1,8-naphthyridine-3-carboxamide] | 97.7% | 
3 | CC[C@@H](NC(=O)c1cn(-c2ccc(F)cc2F)c2nc(N3CCC3=O)ccc2c1=O)C(F)(F)F [Example 205, 1-(2,4-Difluorophenyl)-4-oxo-7-(2-oxoazetidin-1-yl)-N-[(2R)-1,1,1-trifluorobutan-2-yl]-1,4-dihydro-1,8-naphthyridine-3-carboxamide] | 85% | 
4 | CN(C)c1ccc2c(=O)c(C(=O)NC34CCC(CC3)CC4)cn(-c3ccc(F)cc3Cl)c2n1 [Example 152, N-(Bicyclo[2.2.2]oct-1-yl)-1-(2-chloro-4-fluorophenyl)-7-(dimethylamino)-4-oxo-1,4-dihydro-1,8-naphthyridine-3-carboxamide] | 97% | 
5 | CC(NC(=O)c1cn(-c2ccc(F)cc2F)c2nc(NCC(F)(F)F)ccc2c1=O)C(F)(F)F (stereo not drawn) [Example 93, 1-(2,4-Difluorophenyl)-4-oxo-7-[(2,2,2-trifluoroethyl)amino]-N-[1,1,1-trifluoropropan-2-yl]-1,4-dihydro-1,8-naphthyridine-3-carboxamide] | 85.7% | 
6 | CC(NC(=O)c1cn(-c2ccc(F)cc2F)c2nc(N3C[C@@H](O)CC3=O)ccc2c1=O)c1c(F)cccc1F (single isomer, unassigned) [Example 215] | 100% | 
7 | O=C(NC12CCC(F)(CC1)CC2)c1cn(-c2ccc(F)cc2F)c2nc(N3CC[C@H](F)C3)ccc2c1=O [Example 63, 1-(2,4-Difluorophenyl)-N-(4-fluorobicyclo[2.2.2]oct-1-yl)-7-[(3S)-3-fluoropyrrolidin-1-yl]-4-oxo-1,4-dihydro-1,8-naphthyridine-3-carboxamide] | 88% | 
8 | O=C(NC12CC3CC(CC(C3)C1)C2)c1cn(-c2ccc(F)cc2F)c2nc(N3CCOC3=O)ccc2c1=O [Example 128, 1-(2,4-Difluorophenyl)-4-oxo-7-(2-oxo-1,3-oxazolidin-3-yl)-N-(tricyclo[3.3.1.1^3,7]dec-1-yl)-1,4-dihydro-1,8-naphthyridine-3-carboxamide] | 91.7% | 

More lines, now with the values ahead:

Row | Emax | Efficiency | Structure (SMILES)
9 |  | 76.3% | CC[C@@H](NC(=O)c1cn(-c2ccc(F)cc2F)c2nc(N3CCOC(C(F)F)C3)ccc2c1=O)C(F)(F)F (single isomer, unassigned) [Example 264]
10 | 92% |  | O=C(NC(c1ccccc1Cl)C(F)(F)F)c1cn(-c2ccc(F)cc2F)c2nc(N3CC[C@@H](O)C3=O)ccc2c1=O (stereo partly drawn) [Example 299, N-[1-(2-Chlorophenyl)-2,2,2-trifluoroethyl]-1-(2,4-difluorophenyl)-7-[(3R)-3-hydroxy-2-oxopyrrolidin-1-yl]-4-oxo-1,4-dihydro-1,8-naphthyridine-3-carboxamide]
11 |  | 95.0% | CC[C@@H](NC(=O)c1cn(-c2ccc(F)cc2F)c2nc(N3CC(C)CC3=O)ccc2c1=O)C(F)(F)F (single isomer, unassigned) [Example 303]
12 | 99% |  | C[C@@H](COC(F)(F)F)NC(=O)c1cn(-c2c(F)cc(F)cc2F)c2nc(N3C[C@@H](O)[C@H](O)C3)ccc2c1=O [Example 353, 7-[(3R,4R)-3,4-Dihydroxypyrrolidin-1-yl]-4-oxo-N-[(2S)-1-(trifluoromethoxy)propan-2-yl]-1-(2,4,6-trifluorophenyl)-1,4-dihydro-1,8-naphthyridine-3-carboxamide]
